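Compound exposure: 48 hours, 5 concentrations, 96-well plates. GI50: concentration for 50% inhibition of growth.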 The source holds more than one record for some entries. The other results are left out here. An entry can have further records. For some of these results: Records of one sample usually come from different ranges of test concentrations, which the source does not state; some values may only mark the edge of a range. Records carry a tag for their origin. Letters count within one entry. For some of these results: Values that stand side by side are repeats across runs, samples, wells, individuals or studies.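 The concentration for full growth arrest is given as TGI.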
Tests used:
Experiment in all cases: NCI anticancer screen, dose series, 48 h
[1] = tested on: NCI-H23 lung
[2] = tested on: SR leukemia
[3] = tested on: HT29 colon
[4] = tested on: M14 melanoma
[5] = tested on: KM12 colon
[6] = tested on: LOX IMVI melanoma
[7] = tested on: NCI-H460 lung
[8] = tested on: K-562 leukemia
[9] = tested on: RPMI-8226 leukemia
[10] = tested on: HOP-18 NSCLC
[11] = tested on: DMS 273 small cell lung
[12] = tested on: HCC-2998 colon
[13] = tested on: SF-268 CNS
[14] = tested on: RXF 393 renal
[15] = tested on: OVCAR-3 ovarian
[16] = tested on: MOLT-4 leukemia
[17] = tested on: U251 CNS
[18] = tested on: SK-MEL-5 melanoma
[19] = tested on: OVCAR-8 ovarian
[20] = tested on: COLO 205 colon
[21] = tested on: SF-295 CNS
[22] = tested on: UACC-62 melanoma
[23] = tested on: CCRF-CEM leukemia
[24] = tested on: CAKI-1 renal
[25] = tested on: TK-10 renal
[26] = tested on: EKVX NSCLC
[27] = tested on: SK-MEL-28 melanoma
[28] = tested on: HCT-116 colon
[29] = tested on: SN12C renal
[30] = tested on: XF 498 CNS
[31] = tested on: SF-539 CNS
[32] = tested on: ACHN renal
[33] = tested on: MALME-3M melanoma
[34] = tested on: HOP-62 NSCLC
[35] = tested on: KM20L2 colon
[36] = tested on: SW-620 colon
[37] = tested on: OVCAR-5 ovarian
[38] = tested on: OVCAR-4 ovarian
[39] = tested on: A498 renal
[40] = tested on: SK-OV-3 ovarian
[41] = tested on: NCI-H226 lung
[42] = tested on: SNB-78 CNS
[43] = tested on: NCI-H522 lung
[44] = tested on: IGROV1 ovarian
[45] = tested on: HL-60(TB) leukemia

COC(C(=O)C(O)C(C)O)C1Cc2cc3cc(OC4CC(OC(C)=O)C(OC5CC(O)C(OC)C(C)O5)C(C)O4)cc(O)c3c(O)c2C(=O)C1OC1CC(OC2CC(OC3CC(C)(O)C(OC(=O)C(C)C)C(C)O3)C(O)C(C)O2)C(O)C(C)O1 (stereo not given) was tested, and the GI50 [1] was 11.4 nM [sample A, mean of 3 tests] and 0.908 nM [sample B, 1 test], the TGI [1] was 40.2 nM, 392 nM [sample A] and 3.51 nM, 178 nM [sample B] and the GI50 [2] was 42 nM [sample A, mean of 4 tests] and 0.449 nM [sample B, 1 test]. For the same molecule, the GI50 [3] was 11.9 nM [sample A, mean of 3 tests] and 37.1 nM [sample A, mean of 6 tests] and 2.14 nM [sample B, 1 test] and < 18.2 nM [sample B, mean of 4 tests], the GI50 [4] was 107 nM [sample A, mean of 6 tests] and 7.97 nM [sample B, 1 test] and the GI50 [5] was 10.1 nM [sample A, mean of 4 tests] and 24.5 nM [sample A, mean of 5 tests] and 2.21 nM [sample B, 1 test]. The TGI [5] was 14.1 nM [sample A, mean of 4 tests] and 371 nM [sample A, mean of 5 tests] and < 216 nM [sample B, mean of 3 tests], the GI50 [6] was 0.261 nM [1 test] and 34 nM, 58.5 nM [mean of 2 tests] and the TGI [6] was 134 nM, 476 nM [sample A, mean of 2 tests] and > 41.7 µM [sample B, mean of 2 tests]. For the same molecule, the TGI [7] was 488 nM, 218 nM [sample A] and 116 nM, 834 nM [sample B], the GI50 [8] was 7.5 nM [sample A, mean of 3 tests] and 45.9 nM [sample A, mean of 6 tests] and 2.49 nM [sample B, 1 test] and < 10.4 nM [sample B, mean of 3 tests] and the TGI [8] was 1.74 µM [sample A, mean of 3 tests] and 608 nM [sample A, mean of 6 tests] and 48.2 nM [sample B, 1 test] and 1.41 µM [sample B, mean of 3 tests]. The GI50 [9] was 40.3 nM [sample A, mean of 5 tests] and 0.613 nM [sample B, 1 test], the GI50 [10] was 14.1 nM [sample A, mean of 2 tests] and 0.599 nM [sample B, 1 test] and the TGI [10] was 94 nM [sample A, mean of 2 tests] and 4.43 nM [sample B, 1 test]. For the same molecule, the GI50 [11] was 7.5 nM [sample A, mean of 2 tests] and 0.713 nM [sample B, 1 test], the TGI [11] was 101 nM, 8.36 nM [sample A] and 4.03 nM, 23.6 nM [sample B] and the GI50 [12] was 10.2 nM [sample A, mean of 2 tests] and 52 nM [sample A, mean of 4 tests] and 11.7 nM [sample B, 1 test] and 13.8 nM [sample B, mean of 2 tests]. The TGI [12] was 26.6 nM [sample A, mean of 2 tests] and 178 nM [sample A, mean of 4 tests] and 33 nM [sample B, 1 test] and 41.9 nM [sample B, mean of 2 tests], the GI50 [13] was 11.1 nM [sample A, mean of 3 tests] and 25.4 nM [sample A, mean of 5 tests] and 0.346 nM, 0.54 nM [sample B, 1 test] and the TGI [13] was 334 nM [sample A, mean of 3 tests] and 395 nM [sample A, mean of 5 tests] and 33 nM [sample B, 1 test] and 1.7 µM [sample B, mean of 3 tests]. For the same molecule, the GI50 [14] was 10.1 nM [sample A, mean of 3 tests] and 40.8 nM [sample A, mean of 5 tests] and 13.5 nM [sample B, 1 test] and < 11.7 nM [sample B, mean of 3 tests], the TGI [14] was 13.8 nM [sample A, mean of 3 tests] and 118 nM [sample A, mean of 5 tests] and 29.6 nM [sample B, 1 test] and 18.8 nM [sample B, mean of 3 tests] and the GI50 [15] was 9.86 nM [sample A, mean of 4 tests] and 29.2 nM [sample A, mean of 6 tests] and 1.12 nM [sample B, 1 test]. The TGI [15] was 27.3 nM [sample A, mean of 4 tests] and 278 nM [sample A, mean of 6 tests] and 4.49 nM [sample B, 1 test] and 774 nM [sample B, mean of 4 tests], the GI50 [16] was 36.7 nM [sample A, mean of 6 tests] and 2.49 nM [sample B, 1 test] and the GI50 [17] was 19.2 nM, 63.9 nM [sample A, mean of 4 tests] and 0.37 nM [sample B, 1 test]. For the same molecule, the TGI [17] was 567 nM, 1.8 µM [sample A, mean of 4 tests] and 83.3 nM [sample B, 1 test] and 13.7 µM [sample B, mean of 4 tests], the TGI [18] was 67.1 nM, 11.2 nM [sample A] and 4.79 nM, 18 nM [sample B] and the GI50 [19] was 7.5 nM [sample A, mean of 3 tests] and 59.9 nM [sample A, mean of 5 tests] and 6.03 nM [sample B, 1 test] and < 12.3 nM [sample B, mean of 5 tests]. The TGI [19] was 28.6 nM [sample A, mean of 3 tests] and 744 nM [sample A, mean of 5 tests] and 534 nM [sample B, mean of 5 tests], the GI50 [20] was 10 nM [sample A, mean of 3 tests] and 23.3 nM [sample A, mean of 4 tests] and 1.12 nM [sample B, 1 test] and the TGI [20] was 16.6 nM [sample A, mean of 3 tests] and 61.2 nM [sample A, mean of 4 tests] and 3.1 nM [sample B, 1 test] and 14.9 nM [sample B, mean of 3 tests]. The GI50 [21] was 12.7 nM [sample A, mean of 4 tests] and 126 nM [sample A, mean of 5 tests] and 38.6 nM [sample B, 1 test] and 19.3 nM [sample B, mean of 4 tests], the TGI [21] was 28.8 nM [sample A, mean of 4 tests] and 909 nM [sample A, mean of 5 tests] and 343 nM [sample B, mean of 4 tests] and the TGI [22] was 39 nM, 12.1 nM [sample A] and 3.64 nM [sample B]. For the same molecule, the GI50 [23] was 16.2 nM [sample A, mean of 3 tests] and 35.1 nM [sample A, mean of 5 tests] and 0.86 nM [sample B, 1 test], the TGI [23] was 261 nM [sample A, mean of 3 tests] and 230 nM [sample A, mean of 5 tests] and 14.6 nM [sample B, 1 test] and 264 nM [sample B, mean of 4 tests] and the GI50 [24] was 12.4 nM [sample A, mean of 4 tests] and 335 nM [sample A, mean of 5 tests] and 35.9 nM [sample B, mean of 2 tests]. For the same molecule, the TGI [24] was 76.2 nM [mean of 4 tests] and 890 nM [mean of 5 tests], the GI50 [25] was 334 nM [sample A, mean of 5 tests] and 25.1 nM [sample B, 1 test] and the TGI [26] was 305 nM, 100 nM [sample A] and < 24.7 nM [sample B]. The TGI [27] was 52.9 nM, 11.5 nM [sample A] and 4.17 nM, 14.7 nM [sample B], the GI50 [28] was 13.6 nM [sample A, mean of 2 tests] and 0.609 nM, 1.44 nM [sample B, 1 test] and the TGI [28] was 482 nM, 75 µM [sample A] and > 48 µM [sample B]. The GI50 [29] was 11.3 nM [sample A, mean of 3 tests] and 34.9 nM [sample A, mean of 5 tests] and 1.99 nM [sample B, 1 test], the TGI [29] was 984 nM [sample A, mean of 3 tests] and 502 nM [sample A, mean of 5 tests] and 44.7 nM [sample B, 1 test] and 3.71 µM [sample B, mean of 3 tests] and the TGI [30] was 18.7 nM, 10.8 nM [sample A] and 5.35 nM, < 22.8 nM [sample B]. The TGI [31] was 43.1 nM [sample A] and 2.65 nM [sample B], the GI50 [32] was 333 nM [sample A, mean of 6 tests] and 25.1 nM [sample B, 1 test] and the GI50 [33] was 9.13 nM [sample A, mean of 4 tests] and 0.2 nM, 1.78 nM [sample B, 1 test]. The TGI [33] was 66.3 nM, 11.5 nM [sample A] and 6.56 nM, < 63.1 nM [sample B], the TGI [34] was 19.2 nM [sample A, mean of 4 tests] and 409 nM [sample A, mean of 5 tests] and 45.7 nM [sample B, 1 test] and the GI50 [35] was 0.75 nM [sample A, 1 test] and 40.1 nM [sample A, mean of 3 tests] and 45 nM [sample A, mean of 5 tests] and 16.1 nM [sample B, 1 test] and 17.1 nM [sample B, mean of 5 tests]. The TGI [35] was 331 nM [sample A, mean of 3 tests] and 1.3 µM [sample A, mean of 5 tests] and 110 nM [sample B, 1 test] and 728 nM [sample B, mean of 5 tests], the GI50 [36] was 49.1 nM, 18.1 nM [sample A, mean of 5 tests] and 2.01 nM [sample B, 1 test] and the GI50 [37] was 67 nM [sample A, mean of 4 tests] and 32.7 nM [sample A, mean of 5 tests] and 2.62 nM [sample B, 1 test] and < 215 nM [sample B, mean of 3 tests]. The TGI [37] was 146 nM [sample A, mean of 4 tests] and 161 nM [sample A, mean of 5 tests] and 28.7 nM [sample B, 1 test] and 379 nM [sample B, mean of 3 tests], the GI50 [38] was 10.9 nM [sample A, mean of 3 tests] and 32.8 nM [sample A, mean of 5 tests] and 2.05 nM [sample B, 1 test] and the TGI [38] was 177 nM [sample A, mean of 3 tests] and 171 nM [sample A, mean of 5 tests] and 9.36 nM [sample B, 1 test]. For the same molecule, the TGI [39] was 358 nM, 34.5 nM [sample A] and 68.3 nM, 53.6 nM [sample B], the TGI [40] was 282 nM [sample A] and 12.6 µM [sample B] and the GI50 [41] was 39 nM [sample A, mean of 5 tests] and 0.0877 nM, 14.8 nM [sample B, 1 test]. The GI50 [42] was 10.1 nM [sample A, mean of 4 tests] and 0.661 nM [sample B, 1 test], the TGI [42] was 482 nM, 16.1 µM [sample A] and 8.54 nM, 6.23 µM [sample B] and the TGI [43] was 41.2 nM, 84.7 nM [sample A] and 0.937 nM, 67.1 nM [sample B]. For the same molecule, the GI50 [44] was 13.9 nM [sample A, mean of 2 tests] and 47.4 nM [sample A, mean of 5 tests] and 2.74 nM [sample B, 1 test], the TGI [44] was 500 nM [sample A, mean of 2 tests] and 933 nM [sample A, mean of 5 tests] and 39.8 nM [sample B, 1 test] and > 5.3 µM [sample B, mean of 3 tests] and the GI50 [45] was 11.1 nM [sample A, mean of 3 tests] and 45.9 nM [sample A, mean of 6 tests] and 2.35 nM [sample B, 1 test]. For the same molecule, the TGI [45] was 110 nM [sample A, mean of 3 tests] and 159 nM [sample A, mean of 6 tests] and 15.7 nM [sample B, 1 test] and 14.6 nM [sample B, mean of 4 tests].

— PubChem BioAssay (NCI)
